Laboratory results reported in the supplement of paper PMC12230231.
± gives the standard deviation of the averaged measurements. Restriction of a single-cycle SIVsab GFP reporter by TRIM5α v1-loop variants in CRFK cells. Human variants: read share among cells still uninfected after two challenges over input, higher = gained restriction. Rhesus variants: share among infected cells over input, higher = lost restriction. Reporter dose not given per row. No active / inactive call per row; the paper calls a change when both replicates lie above its controls (mean + 2 SD of stop or wild-type variants, or the top frameshift score). Residues outside the varied loop are taken from Swiss-Prot. The paper reads the human single-substitution scores as noise; they and the rhesus combinations repeat poorly (rank correlation 0.3 to 0.4), indel scores repeat only for the top variants, rhesus substitutions well (0.9).

test system: SIVsab (simian immunodeficiency virus of sabaeus monkeys), single-cycle GFP reporter, in CRFK cells; test: enrichment among infected cells over input (fold); higher = weaker restriction; conditions: library: human / rhesus combinations
Protocol: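 Pools of CRFK cells expressing variants of the TRIM5α v1 loop were challenged with the single-cycle reporter, sorted by GFP and sequenced; mean of two replicates.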

Sequence	enrichment
MASGILLNVKEEVTCPICLELLTEPLSLHCGHSFCQACITANHKKSMLYKEGERSCPVCRISYQPENIQPNRHVANIVEKLREVKLSPEEGQKVDHCARHGEKLLLFCQEDSKVICWLCERSQEHRGHHTFLMEEVAQEYHVKLQTALEMLRQKQQEAEKLEADIREEKASWKIQIDYDKTNVSADFEQLREILDWEESNELQNLEKEEEDILKSLTKSETEMVQQTQYMRELISELEHRLQGSMMDLLQGVDGIIKRIENMTLKKPKTFHKNQRRVFRAPDLKGMLDMFRELTDARRYWVDVTLAPNNISHAVIAEDKRQVSSRNPQIMYQARGTLYTFPTLVNFNYCTGVLGSQSITSGKHYWEVDVSKKSAWILGVCAGFQSDAMYNIEQNENYQPKYGYWVIGLQEGVKYSVFQDGSSHTPFAPFIVPLSVIICPDRVGVFVDYEACTVSFFNITNHGFLIYKFSQCSFSKPVFPYLNPRKCTVPMTLCSPSS [rhesus TRIM5α, 332-344 = QARGTLYTFPTLV]	1.23 ± 0.73
MASGILLNVKEEVTCPICLELLTEPLSLHCGHSFCQACITANHKKSMLYKEGERSCPVCRISYQPENIQPNRHVANIVEKLREVKLSPEEGQKVDHCARHGEKLLLFCQEDSKVICWLCERSQEHRGHHTFLMEEVAQEYHVKLQTALEMLRQKQQEAEKLEADIREEKASWKIQIDYDKTNVSADFEQLREILDWEESNELQNLEKEEEDILKSLTKSETEMVQQTQYMRELISELEHRLQGSMMDLLQGVDGIIKRIENMTLKKPKTFHKNQRRVFRAPDLKGMLDMFRELTDARRYWVDVTLAPNNISHAVIAEDKRQVSSRNPQIMYQAPGTRYTFPTFVNFNYCTGVLGSQSITSGKHYWEVDVSKKSAWILGVCAGFQSDAMYNIEQNENYQPKYGYWVIGLQEGVKYSVFQDGSSHTPFAPFIVPLSVIICPDRVGVFVDYEACTVSFFNITNHGFLIYKFSQCSFSKPVFPYLNPRKCTVPMTLCSPSS [rhesus TRIM5α, 332-344 = QAPGTRYTFPTFV]	1.6 ± 0.77
MASGILLNVKEEVTCPICLELLTEPLSLHCGHSFCQACITANHKKSMLYKEGERSCPVCRISYQPENIQPNRHVANIVEKLREVKLSPEEGQKVDHCARHGEKLLLFCQEDSKVICWLCERSQEHRGHHTFLMEEVAQEYHVKLQTALEMLRQKQQEAEKLEADIREEKASWKIQIDYDKTNVSADFEQLREILDWEESNELQNLEKEEEDILKSLTKSETEMVQQTQYMRELISELEHRLQGSMMDLLQGVDGIIKRIENMTLKKPKTFHKNQRRVFRAPDLKGMLDMFRELTDARRYWVDVTLAPNNISHAVIAEDKRQVSSRNPQIMYGAPGTLFQTFTNFNYCTGVLGSQSITSGKHYWEVDVSKKSAWILGVCAGFQSDAMYNIEQNENYQPKYGYWVIGLQEGVKYSVFQDGSSHTPFAPFIVPLSVIICPDRVGVFVDYEACTVSFFNITNHGFLIYKFSQCSFSKPVFPYLNPRKCTVPMTLCSPSS [rhesus TRIM5α, 332-344 = GAPGTLFQTFT]	0.242 ± 0.34
MASGILLNVKEEVTCPICLELLTEPLSLHCGHSFCQACITANHKKSMLYKEGERSCPVCRISYQPENIQPNRHVANIVEKLREVKLSPEEGQKVDHCARHGEKLLLFCQEDSKVICWLCERSQEHRGHHTFLMEEVAQEYHVKLQTALEMLRQKQQEAEKLEADIREEKASWKIQIDYDKTNVSADFEQLREILDWEESNELQNLEKEEEDILKSLTKSETEMVQQTQYMRELISELEHRLQGSMMDLLQGVDGIIKRIENMTLKKPKTFHKNQRRVFRAPDLKGMLDMFRELTDARRYWVDVTLAPNNISHAVIAEDKRQVSSRNPQIMYGARGTLYTFQSFTNFNYCTGVLGSQSITSGKHYWEVDVSKKSAWILGVCAGFQSDAMYNIEQNENYQPKYGYWVIGLQEGVKYSVFQDGSSHTPFAPFIVPLSVIICPDRVGVFVDYEACTVSFFNITNHGFLIYKFSQCSFSKPVFPYLNPRKCTVPMTLCSPSS [rhesus TRIM5α, 332-344 = GARGTLYTFQSFT]	1.3 ± 0.024
MASGILLNVKEEVTCPICLELLTEPLSLHCGHSFCQACITANHKKSMLYKEGERSCPVCRISYQPENIQPNRHVANIVEKLREVKLSPEEGQKVDHCARHGEKLLLFCQEDSKVICWLCERSQEHRGHHTFLMEEVAQEYHVKLQTALEMLRQKQQEAEKLEADIREEKASWKIQIDYDKTNVSADFEQLREILDWEESNELQNLEKEEEDILKSLTKSETEMVQQTQYMRELISELEHRLQGSMMDLLQGVDGIIKRIENMTLKKPKTFHKNQRRVFRAPDLKGMLDMFRELTDARRYWVDVTLAPNNISHAVIAEDKRQVSSRNPQIMYGAPGTLFTFPTFTNFNYCTGVLGSQSITSGKHYWEVDVSKKSAWILGVCAGFQSDAMYNIEQNENYQPKYGYWVIGLQEGVKYSVFQDGSSHTPFAPFIVPLSVIICPDRVGVFVDYEACTVSFFNITNHGFLIYKFSQCSFSKPVFPYLNPRKCTVPMTLCSPSS [rhesus TRIM5α, 332-344 = GAPGTLFTFPTFT]	0.272 ± 0.069
MASGILLNVKEEVTCPICLELLTEPLSLHCGHSFCQACITANHKKSMLYKEGERSCPVCRISYQPENIQPNRHVANIVEKLREVKLSPEEGQKVDHCARHGEKLLLFCQEDSKVICWLCERSQEHRGHHTFLMEEVAQEYHVKLQTALEMLRQKQQEAEKLEADIREEKASWKIQIDYDKTNVSADFEQLREILDWEESNELQNLEKEEEDILKSLTKSETEMVQQTQYMRELISELEHRLQGSMMDLLQGVDGIIKRIENMTLKKPKTFHKNQRRVFRAPDLKGMLDMFRELTDARRYWVDVTLAPNNISHAVIAEDKRQVSSRNPQIMYGARGTRFTFPTLTNFNYCTGVLGSQSITSGKHYWEVDVSKKSAWILGVCAGFQSDAMYNIEQNENYQPKYGYWVIGLQEGVKYSVFQDGSSHTPFAPFIVPLSVIICPDRVGVFVDYEACTVSFFNITNHGFLIYKFSQCSFSKPVFPYLNPRKCTVPMTLCSPSS [rhesus TRIM5α, 332-344 = GARGTRFTFPTLT]	1.58 ± 0.32
MASGILLNVKEEVTCPICLELLTEPLSLHCGHSFCQACITANHKKSMLYKEGERSCPVCRISYQPENIQPNRHVANIVEKLREVKLSPEEGQKVDHCARHGEKLLLFCQEDSKVICWLCERSQEHRGHHTFLMEEVAQEYHVKLQTALEMLRQKQQEAEKLEADIREEKASWKIQIDYDKTNVSADFEQLREILDWEESNELQNLEKEEEDILKSLTKSETEMVQQTQYMRELISELEHRLQGSMMDLLQGVDGIIKRIENMTLKKPKTFHKNQRRVFRAPDLKGMLDMFRELTDARRYWVDVTLAPNNISHAVIAEDKRQVSSRNPQIMYQAPGTLFTFQTFTNFNYCTGVLGSQSITSGKHYWEVDVSKKSAWILGVCAGFQSDAMYNIEQNENYQPKYGYWVIGLQEGVKYSVFQDGSSHTPFAPFIVPLSVIICPDRVGVFVDYEACTVSFFNITNHGFLIYKFSQCSFSKPVFPYLNPRKCTVPMTLCSPSS [rhesus TRIM5α, 332-344 = QAPGTLFTFQTFT]	1.27 ± 0.47
MASGILLNVKEEVTCPICLELLTEPLSLHCGHSFCQACITANHKKSMLYKEGERSCPVCRISYQPENIQPNRHVANIVEKLREVKLSPEEGQKVDHCARHGEKLLLFCQEDSKVICWLCERSQEHRGHHTFLMEEVAQEYHVKLQTALEMLRQKQQEAEKLEADIREEKASWKIQIDYDKTNVSADFEQLREILDWEESNELQNLEKEEEDILKSLTKSETEMVQQTQYMRELISELEHRLQGSMMDLLQGVDGIIKRIENMTLKKPKTFHKNQRRVFRAPDLKGMLDMFRELTDARRYWVDVTLAPNNISHAVIAEDKRQVSSRNPQIMYQAPGTLFQSLTNFNYCTGVLGSQSITSGKHYWEVDVSKKSAWILGVCAGFQSDAMYNIEQNENYQPKYGYWVIGLQEGVKYSVFQDGSSHTPFAPFIVPLSVIICPDRVGVFVDYEACTVSFFNITNHGFLIYKFSQCSFSKPVFPYLNPRKCTVPMTLCSPSS [rhesus TRIM5α, 332-344 = QAPGTLFQSLT]	0.635 ± 0.058
